# Where “and” joins values, the source holds several entries; their conditions need not be identical. Equal values may be shown once. Hit rate of the full screen: of about 420,000 compounds, about 64,000 (15%) were called active. Inconclusive results, whose numbers are uncertain, are shown with a selection of clear calls. Calls follow the shape of the dose curve; as a rule, active = well fitted inhibition curve with a large enough effect; inconclusive = small, poorly fitted or top-dose-only effect; inactive = flat fitted curve, though single readings scatter. No potency is given beside an inconclusive call; the fits are too rough. More than one record can exist for a structure, and the calls need not agree.
# Assay: qHTS for Inhibitors of human tyrosyl-DNA phosphodiesterase 1 (TDP1): qHTS in cells in absence of CPT; also: nearly all actives have a fitted effect of over 55% in size
# Conditions: DT40 Tdp1-/- hTDP1 cells, no CPT, ATP luminescence, 48 h; activity change, negative = growth inhibition: at 46.2 µM (top of the series)
# How it was run: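 Chicken DT40 Tdp1-/- cells complemented with human TDP1, screened without camptothecin (DMSO vehicle only), 400 cells/well. Compounds pin-transferred, cells incubated at 37 °C for at least 48 hr. Growth read as ATP-dependent luminescence (CellTiter-Glo, 30 min at RT).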
# % is scaled to controls: 0 for no effect and ±100 for the full control effect; potency is read from the fitted curve at half-maximal effect; tags tell the direction and shape of the fitted curve.
SMILES,Potency,"activity change, negative = growth inhibition"
Cc1cc(NC(=O)CN2C(=O)NC(C)(c3ccc(OC(F)F)cc3)C2=O)no1 (configuration not stated),"inconclusive [inhibitor, single point]",
CCN(CC)CCSc1nc2ccccc2n1Cc1ccccc1,active: 16.4 µM,
CCOc1ccc(CN(CCO)CCO)cc1[N+](=O)[O-],inactive,
Clc1ccccc1-c1ccc2ncnc(NC3CCNCC3)c2c1,"inconclusive [inhibitor, single point]",
C=CCc1ccccc1OCC(=O)NNC(=S)NCc1ccccc1,active: 5.17 µM,
O=C(O)Cc1ccc(-c2ccccc2)cc1,inactive,
CCc1ccc(-n2nc3cc(C)c(NC(=O)c4cccc5ccccc45)cc3n2)cc1,"inconclusive [inhibitor, single point]",
COc1ccc2c(=O)c(C(=O)NCCc3ccccc3)c[nH]c2c1,"inconclusive [inhibitor, partial curve, poor fit]",
Nc1c(C(=O)NC2CCCC2)c2nc3ccccc3nc2n1/N=C/c1cccnc1,active: 18.4 µM,
COc1ccc(OC)c(-c2csc(NC(=O)c3ccc(F)cc3)n2)c1,"inconclusive [inhibitor, partial curve, poor fit]",
CC(C)(C)OC(=O)CNC(=O)c1[nH]cnc1C(=O)N[C@@H](CCCCNC(=O)OC(C)(C)C)C(=O)OC(C)(C)C,"inconclusive [inhibitor, single point]",
Cc1cc(C(=O)NNc2c(Cl)cccc2Cl)no1,"inconclusive [inhibitor, single point]",
COc1ccc(OC)c(Nc2ncnc3sc(-c4ccccc4)cc23)c1,"inconclusive [inhibitor, single point]",
CN(c1ncnc2onc(-c3cccc(Cl)c3)c12)C1CCCCC1,active: 23.1 µM,
Nc1cccc(CCc2nc3ccccc3[nH]2)c1,inactive,
Cc1ccc(-n2nc(CO)c(C(=O)NCc3ccccn3)n2)cc1C,"inconclusive [inhibitor, partial curve]",
COc1ccc2oc(C(=O)OCC(=O)NCCN3C(=O)CSC3=O)c(C)c2c1,inactive,
COc1ccc(NC(=O)Cn2nnc(-c3ccccc3NC(=O)C3CC3)n2)cc1,,inconclusive: -30.2% [inhibitor]
Clc1cccc(CN2CCc3c([nH]c4ccccc34)C2)c1Cl,active: 23.1 µM,
COc1cccc(OC)c1C(=O)NC(=S)Nc1ccc2c(c1)C(=O)N(C)C2=O,"inconclusive [inhibitor, single point]",
O=C(CCC(=O)NC1CCCCC1)N/N=C/c1ccncc1,inactive,
COc1ccc(Cl)cc1NC(=O)CN(C)C(=O)CCCc1c[nH]c2ccccc12,"inconclusive [inhibitor, single point]",
COc1ccccc1N(C)S(=O)(=O)c1ccc(C(=O)Nc2nccs2)cc1,active: 6.51 µM,
COc1ccc(NC(=O)c2cc(Cl)ccc2Cl)c([N+](=O)[O-])c1,,inconclusive: -31% [inhibitor]

SMILES,Potency,"activity change, negative = growth inhibition"
Cc1ccc(-n2cc(C(=O)c3ccccc3O)cn2)cc1,"inconclusive [inhibitor, single point]",
CCN=c1scc(-c2ccc3c(c2)NC(=O)CO3)n1N=C1CCCC1,active: 14.6 µM and active: 8.2 µM,
O=C(NC(=S)Nc1cccc2cc(O)ccc12)c1ccccc1Br,"inconclusive [inhibitor, single point]",
CSc1nc2ccc(NC(=O)c3nn(C(C)C)c(=O)c4ccccc34)cc2s1,"inconclusive [inhibitor, partial curve, poor fit]",
CC(C)(C)c1ccc(NC(=O)CNC2CCCc3ccccc32)cc1 (configuration not stated),"inconclusive [inhibitor, single point]",
Cc1ccc(CNC(=O)C2(NC(=O)Nc3ccc(C)cc3)CCCCC2)cc1,"inconclusive [inhibitor, single point]",
CCOC(=O)CON1C(=O)C(=O)N(OCC(=O)OCC)C2CCCCC21 (configuration not stated),inactive,
COc1ccccc1OCCOc1ccc(/C=C2\C(=N)N3N=C(C)SC3=NC2=O)cc1,inactive,
COCCN1C(=O)c2[nH]nc(-c3cc(C)ccc3O)c2C1c1ccc(C(C)C)cc1 (configuration not stated),"inconclusive [inhibitor, single point]",
N[C@H](C(=O)O)c1ccc(O)c(C(=O)O)c1,inactive,
O=C(Nc1cccc(F)c1)N1CCCC2(CCN(S(=O)(=O)c3ccccc3)CC2)C1,"inconclusive [inhibitor, single point]",
CCc1ccccc1NC(=O)c1cc(S(=O)(=O)N2CCCC2)cn1C,inactive,
COc1ccc(OC)c(NC(=O)c2c(NCc3cccs3)sc3c2CCCC3)c1,"inconclusive [inhibitor, single point]",
CCn1ncc(Cl)c1C(=O)NC(=S)Nc1c(C)cc(C)cc1[N+](=O)[O-],active: 23.1 µM,
C/C(CC(=O)Nc1cc(Cl)ccc1Cl)=N\NC(N)=S,inactive,
Cn1c(=O)nc2n(Cc3ccccc3)c3ccccc3cc-2c1=O,"inconclusive [inhibitor, single point]",
Cc1ccc(NC(=O)C2CCN(c3nc4ccccc4[nH]3)CC2)c(C)c1,"inconclusive [inhibitor, single point]",
O=C(NCc1ccc(F)cc1)c1ccccc1OCc1ccccc1,"inconclusive [inhibitor, partial curve, poor fit]",
COC(=O)c1cnc(N2CCN(c3ccccc3F)CC2)c2ccccc12,active: 16.4 µM,
O=C(Cc1ccccc1)Nc1cccc(-c2cn3cccnc3n2)c1,"inconclusive [inhibitor, single point]",
Cc1c[nH]c(=O)c([N+](=O)[O-])c1,inactive,
Cc1ccc(OCC(=O)N(Cc2ccc(C)o2)C2CCS(=O)(=O)C2)cc1 (configuration not stated),inactive,
COc1ccccc1NC(=O)NCCN1CCN(c2cccc(Cl)c2)CC1,active: 23.1 µM,
Brc1ccc(-c2cn3nc4c(nc3n2)CCCC4)cc1,,inconclusive: -36.8% [inhibitor]

SMILES,Potency,"activity change, negative = growth inhibition"
O=C(O)/C=C/C(=O)Nc1ccc(-n2nccc2C(F)(F)F)cc1,inactive,
COc1ccc(-c2cn(-c3ccc(C)cc3C)c(=S)[nH]2)cc1OC,active: 20.6 µM,
CC1CCN(CC(=O)NCc2ccccc2)CC1,inactive,
CCN(CC)S(=O)(=O)c1ccc(/C=C/C(=O)OCC(=O)NCc2ccco2)cc1,"inconclusive [inhibitor, partial curve, poor fit]",
Cc1nc(SCC(=O)Nc2ccccc2Cl)oc1C,inactive,
CCc1nnc(NC(=O)CSc2nnc(-c3ccoc3C)n2-c2ccc(C)cc2)s1,"inconclusive [inhibitor, partial curve, poor fit]",
Cc1cccc(C)c1-n1ncc(C(=O)N2CCN(c3ccccc3)CC2)c1C1CCN(C(=O)OC(C)(C)C)CC1,"inconclusive [inhibitor, single point]",
Cc1cccn2cc(CSc3nnc(Nc4ccc(C(C)C)cc4)s3)nc12,"inconclusive [inhibitor, single point]",
CCOc1ccc(S(=O)(=O)Nc2ccc3c(c2)N(C(C)=O)CCC3)cc1,active: 18.4 µM,
CCOC(=O)C1(CCc2ccccc2)CCN(C(=O)c2ccoc2)CC1,"inconclusive [inhibitor, single point]",
Cc1ccc(CNS(=O)(=O)c2cc3c(cc2C)NC(=O)CO3)cc1,"inconclusive [inhibitor, partial curve]",
CN(CC(=O)Nc1cccc(C(F)(F)F)c1)S(=O)(=O)c1cccs1,"inconclusive [inhibitor, single point]",
COc1ccccc1N1CCN(C(=O)CN(Cc2ccc(Cl)cc2)S(C)(=O)=O)CC1,"inconclusive [inhibitor, single point]",
O=C(c1ccc(CSc2nc3ccncc3n2Cc2cccc(F)c2)cc1)N1CCCCCC1,active: 16.4 µM,
Cc1nc2ccccc2c(=O)n1NC(=O)c1ccc(Cl)cc1,,inconclusive: -31.9% [inhibitor]
CCCS(=O)(=O)N1CCN(CCN2C(=O)c3cccc4cccc(c34)C2=O)CC1,"inconclusive [inhibitor, single point]",
CC(=O)c1cc2c(cc1NC(=O)CN1CCCCCCC1)OCO2,"inconclusive [inhibitor, partial curve, poor fit]",
Cc1ccc(NC(=O)CN2C(=O)NC(Cc3c[nH]c4ccccc34)C2=O)cc1S(=O)(=O)N1CCCCC1 (configuration not stated),active: 20.6 µM,
O=c1c(Cc2ccccc2O)c(O)nc2n1CCCS2,"inconclusive [inhibitor, partial curve, poor fit]",
Cc1cncn1CCc1nc2c3ccccc3nc(SCC(=O)Nc3cccc(Cl)c3)n2n1,active: 7.31 µM,
Cc1ccc(C)c(N2CCN(C(=O)c3csc(C)c3C)CC2)c1,"inconclusive [inhibitor, single point]",
C[C@H](NC(=O)[C@@H]1Cc2ccccc2CN1)C(=O)NCC1CCCO1 (some centres not stated),"inconclusive [inhibitor, single point]",
CCOc1ccc(C(=O)Nc2cccc(C(=O)O)c2)cc1Cl,"inconclusive [inhibitor, partial curve, poor fit]",
CC(Oc1ccc(Br)cc1Cl)C(=O)Nc1ccncc1 (configuration not stated),active: 5.17 µM,

# From PubChem BioAssay AID686978 (National Center for Advancing Translational Sciences (NCATS), 2013)
